This is an account of results in article PMC9911399, “Two distinct binding modes provide the RNA-binding protein RbFox with extraordinary sequence specificity”.

Where a chain is given by its changes, count along the chain named. Some of the results follow.

B1: CGCGGCA (DNA:RNA)
RNA: GGGAGACCGGAAUUCAGAUUGUCCCGCGGCAUUAAAUCCCGUCGUAGCCACCA
DNA 1: CAATCTGAATTCCGGTCTCCC
DNA 2: TGGTGGCTACGACGGGATT
B2: AGUCAGU (DNA:RNA)
RNA: B1 RNA with C25A, C27U, G28C, G29A, C30G, A31U
DNA 1: CAATCTGAATTCCGGTCTCCC
DNA 2: TGGTGGCTACGACGGGATT
B3: CAACCCU (DNA:RNA)
RNA: B1 RNA with G26A, C27A, G28C, G29C, A31U
DNA 1: CAATCTGAATTCCGGTCTCCC
DNA 2: TGGTGGCTACGACGGGATT
B4: CGUCAUG (DNA:RNA)
RNA: B1 RNA with C27U, G28C, G29A, C30U, A31G
DNA 1: CAATCTGAATTCCGGTCTCCC
DNA 2: TGGTGGCTACGACGGGATT
B5: CUCUACA (DNA:RNA)
RNA: B1 RNA with G26U, G28U, G29A
DNA 1: CAATCTGAATTCCGGTCTCCC
DNA 2: TGGTGGCTACGACGGGATT
B6: ACCUAGC (DNA:RNA)
RNA: B1 RNA with C25A, G26C, G28U, G29A, C30G, A31C
DNA 1: CAATCTGAATTCCGGTCTCCC
DNA 2: TGGTGGCTACGACGGGATT
B7: GCAAGUG (DNA:RNA)
RNA: B1 RNA with C25G, G26C, C27A, G28A, C30U, A31G
DNA 1: CAATCTGAATTCCGGTCTCCC
DNA 2: TGGTGGCTACGACGGGATT
B8: AUACGCG (DNA:RNA)
RNA: B1 RNA with C25A, G26U, C27A, G28C, A31G
DNA 1: CAATCTGAATTCCGGTCTCCC
DNA 2: TGGTGGCTACGACGGGATT
B9: UGCCAAG (DNA:RNA)
RNA: B1 RNA with C25U, G28C, G29A, C30A, A31G
DNA 1: CAATCTGAATTCCGGTCTCCC
DNA 2: TGGTGGCTACGACGGGATT
B10: UGCUCAA (DNA:RNA)
RNA: B1 RNA with C25U, G28U, G29C, C30A
DNA 1: CAATCTGAATTCCGGTCTCCC
DNA 2: TGGTGGCTACGACGGGATT
B11: GUGGUUU (DNA:RNA)
RNA: B1 RNA with C25G, G26U, C27G, G29U, C30U, A31U
DNA 1: CAATCTGAATTCCGGTCTCCC
DNA 2: TGGTGGCTACGACGGGATT
B12: UUGGAGG (DNA:RNA)
RNA: B1 RNA with C25U, G26U, C27G, G29A, C30G, A31G
DNA 1: CAATCTGAATTCCGGTCTCCC
DNA 2: TGGTGGCTACGACGGGATT
B13: CUUGGGA (DNA:RNA)
RNA: B1 RNA with G26U, C27U, C30G
DNA 1: CAATCTGAATTCCGGTCTCCC
DNA 2: TGGTGGCTACGACGGGATT
B14: AGCGGGA (DNA:RNA)
RNA: B1 RNA with C25A, C30G
DNA 1: CAATCTGAATTCCGGTCTCCC
DNA 2: TGGTGGCTACGACGGGATT
B15: UAUGUGG (DNA:RNA)
RNA: B1 RNA with C25U, G26A, C27U, G29U, C30G, A31G
DNA 1: CAATCTGAATTCCGGTCTCCC
DNA 2: TGGTGGCTACGACGGGATT
B16: AUUGGCG (DNA:RNA)
RNA: B1 RNA with C25A, G26U, C27U, A31G
DNA 1: CAATCTGAATTCCGGTCTCCC
DNA 2: TGGTGGCTACGACGGGATT
B17: UGUACGU (DNA:RNA)
RNA: B1 RNA with C25U, C27U, G28A, G29C, C30G, A31U
DNA 1: CAATCTGAATTCCGGTCTCCC
DNA 2: TGGTGGCTACGACGGGATT
B18: GUAAUCU (DNA:RNA)
RNA: B1 RNA with C25G, G26U, C27A, G28A, G29U, A31U
DNA 1: CAATCTGAATTCCGGTCTCCC
DNA 2: TGGTGGCTACGACGGGATT
B19: ACCUCAA (DNA:RNA)
RNA: B1 RNA with C25A, G26C, G28U, G29C, C30A
DNA 1: CAATCTGAATTCCGGTCTCCC
DNA 2: TGGTGGCTACGACGGGATT
B20: GACCCCG (DNA:RNA)
RNA: B1 RNA with C25G, G26A, G28C, G29C, A31G
DNA 1: CAATCTGAATTCCGGTCTCCC
DNA 2: TGGTGGCTACGACGGGATT
B21: UAGGAUG (DNA:RNA)
RNA: B1 RNA with C25U, G26A, C27G, G29A, C30U, A31G
DNA 1: CAATCTGAATTCCGGTCTCCC
DNA 2: TGGTGGCTACGACGGGATT
B22: ACGCAUA (DNA:RNA)
RNA: B1 RNA with C25A, G26C, C27G, G28C, G29A, C30U
DNA 1: CAATCTGAATTCCGGTCTCCC
DNA 2: TGGTGGCTACGACGGGATT
B23: UACAGGC (DNA:RNA)
RNA: B1 RNA with C25U, G26A, G28A, C30G, A31C
DNA 1: CAATCTGAATTCCGGTCTCCC
DNA 2: TGGTGGCTACGACGGGATT
B24: GGUCCGG (DNA:RNA)
RNA: B1 RNA with C25G, C27U, G28C, G29C, C30G, A31G
DNA 1: CAATCTGAATTCCGGTCTCCC
DNA 2: TGGTGGCTACGACGGGATT
B25: GCACAAA (DNA:RNA)
RNA: B1 RNA with C25G, G26C, C27A, G28C, G29A, C30A
DNA 1: CAATCTGAATTCCGGTCTCCC
DNA 2: TGGTGGCTACGACGGGATT
B26: GUCCCCA (DNA:RNA)
RNA: B1 RNA with C25G, G26U, G28C, G29C
DNA 1: CAATCTGAATTCCGGTCTCCC
DNA 2: TGGTGGCTACGACGGGATT
B27: GUAUUGA (DNA:RNA)
RNA: B1 RNA with C25G, G26U, C27A, G28U, G29U, C30G
DNA 1: CAATCTGAATTCCGGTCTCCC
DNA 2: TGGTGGCTACGACGGGATT
B28: CUGUUUU (DNA:RNA)
RNA: B1 RNA with G26U, C27G, G28U, G29U, C30U, A31U
DNA 1: CAATCTGAATTCCGGTCTCCC
DNA 2: TGGTGGCTACGACGGGATT
B29: ACUUGCC (DNA:RNA)
RNA: B1 RNA with C25A, G26C, C27U, G28U, A31C
DNA 1: CAATCTGAATTCCGGTCTCCC
DNA 2: TGGTGGCTACGACGGGATT
B30: GUAUAAA (DNA:RNA)
RNA: B1 RNA with C25G, G26U, C27A, G28U, G29A, C30A
DNA 1: CAATCTGAATTCCGGTCTCCC
DNA 2: TGGTGGCTACGACGGGATT
B31: CGGACGG (DNA:RNA)
RNA: B1 RNA with C27G, G28A, G29C, C30G, A31G
DNA 1: CAATCTGAATTCCGGTCTCCC
DNA 2: TGGTGGCTACGACGGGATT

This assay concerns the target T1, RBFOX1 RRM RbFoxmut (Fox-RRM*) (Homo sapiens, UniProt Q9NWB1 109-208, R118D;E147R;N151S;E152T).
T1 sequence: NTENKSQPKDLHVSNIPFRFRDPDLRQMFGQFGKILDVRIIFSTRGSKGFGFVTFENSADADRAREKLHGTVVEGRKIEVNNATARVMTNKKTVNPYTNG
Kind of assay: EMSA; HiTS-Eq, 1 nM pool, 10 min; buffer printed only for the single-RNA assays: 10 mM Tris pH 7.5, 150 mM NaCl, 3.4 mM EDTA, 0.001% NP-40, 30 C. To be noted: tags: His6 N-terminal (pET28a); label: 5' 32P. The gist of the method:
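Purified RbFox RRM (wild type or mutant) was equilibrated for 10 min in 50 µL with 1 nM of a 5′-radiolabelled pool of RNA with 7 randomized nucleotides, its flanks annealed to DNA oligonucleotides, across increasing protein concentrations. Free RNA was separated by 8% native PAGE, excised, reverse-transcribed, PCR-barcoded and sequenced on an Illumina HiSeq 2500. Relative association constants came from read-count changes of each variant against the control reaction, normalised to the cognate motif.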
For B1, the binding signal is 0.132 KA relative to UGCAUGU. Take B2: the binding signal was 0.0793 KA relative to UGCAUGU. Regarding B3, the binding signal is 0.102 KA relative to UGCAUGU. For B4 the value was 0.275 KA relative to UGCAUGU; for B5, 0.124 KA relative to UGCAUGU. For B6 the value was 0.104 KA relative to UGCAUGU. To B7 belongs 0.122 KA relative to UGCAUGU; to B8, 0.125 KA relative to UGCAUGU; to B9, 0.101 KA relative to UGCAUGU. For B10, the binding signal is 0.0896 KA relative to UGCAUGU. B11: the binding signal is 0.115 KA relative to UGCAUGU. For B12, the binding signal is 0.0998 KA relative to UGCAUGU. To B13 belongs 0.0775 KA relative to UGCAUGU. As to B14, the binding signal is 0.119 KA relative to UGCAUGU. With B15, the binding signal was 0.118 KA relative to UGCAUGU. For the molecule B16, the binding signal was 0.146 KA relative to UGCAUGU. For the molecule B17, the binding signal is 0.165 KA relative to UGCAUGU.

As to B18, the binding signal is 0.067 KA relative to UGCAUGU. To B19 belongs 0.0841 KA relative to UGCAUGU. Consider B20, for which the binding signal is 0.0671 KA relative to UGCAUGU. With B21, the binding signal is 0.159 KA relative to UGCAUGU. For B22 the value was 0.152 KA relative to UGCAUGU; for B23, 0.079 KA relative to UGCAUGU. As for B24, the binding signal is 0.126 KA relative to UGCAUGU. B25: the binding signal is 0.084 KA relative to UGCAUGU. As to B26, the binding signal is 0.0674 KA relative to UGCAUGU.

Turning to B27, the binding signal is 0.212 KA relative to UGCAUGU.

For the molecule B28, the binding signal is 0.0825 KA relative to UGCAUGU. As for B29, the binding signal is 0.372 KA relative to UGCAUGU. Turning to B30, the binding signal is 0.15 KA relative to UGCAUGU. B31: the binding signal is 0.0977 KA relative to UGCAUGU.
